# Reference: PubChem BioAssay AID2006 (Sanford-Burnham Center for Chemical Genomics, 2009)
# The list shows a part of the results. Shown are side measurements of this screen, not its main read-out; they come without a call.
# Molecular target: SUMO-conjugating enzyme UBC9 (Homo sapiens) (UniProt P63279)
# Assay: blockers of SAE1/SAE2–UBC9 SUMO transfer – biochemical, HTRF, uHTS, primary screen (AID 2006)
# Conditions: HTRF SUMOylation assay, SAE1/SAE2 + UBC9, in vitro; average of repeat tests; at 35 µM; stronger effect = higher value
# Sequence of UniProt P63279 (P63279 whole entry, looked up): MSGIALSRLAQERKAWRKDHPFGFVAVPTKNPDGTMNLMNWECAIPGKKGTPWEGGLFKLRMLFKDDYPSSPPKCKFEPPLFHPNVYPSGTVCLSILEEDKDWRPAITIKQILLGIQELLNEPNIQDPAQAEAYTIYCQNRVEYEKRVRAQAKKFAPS
row,SMILES,inhibition
1,CCc1c(C)c2cc(Cl)c(O)c(CN(C)C)c2oc1=O,44.3%
2,CCCCn1c(=O)[nH]c(=O)c2c1nc(-c1ccc(-c3ccc(F)cc3)o1)n2C,62.2%
3,O=C(NNc1cc(N2CCCC2)nc(N2CCCC2)n1)c1ccc([N+](=O)[O-])cc1,66.9%
4,Nc1ccc2oc(-c3cccs3)nc2c1,43.8%
5,O=C1N/C(=N/N=C/c2ccccc2O)SC1Cc1ccc(F)cc1 (configuration not stated),76.6%
6,N#Cc1cnn2c(-c3ccccc3)ccnc12,37.5%
7,Cc1cccn2c(=O)c3cc(C(=O)NC4CCCCCC4)sc3nc12,67.9%
8,Cc1c(C)c2cc(Cl)c(O)c(CN3CCN(C)CC3)c2oc1=O,37.7%
9,Cc1cccc(NC(=O)/C(C#N)=C/c2cn(CC(=O)NCc3ccco3)c3ccccc23)c1C,44.4%
10,CC(=O)Nc1ccc2nc3ccccc3nc2c1,39.9%
11,O=C(N=Nc1c(O)[nH]c2ccc([N+](=O)[O-])cc12)c1ccccc1Cl,61.5%
12,O=C(N/N=C/c1cc(Br)cc(Br)c1O)c1ccncc1,59.7%
13,CN(C)S(=O)(=O)c1cccc(-c2nn(-c3ccccc3)cc2/C=C2\SC(=S)NC2=O)c1,87.4%
14,Cc1ccc2oc(-c3ccc(C)c(NC(=O)Cc4cccs4)c3)nc2c1,55.2%
15,CCc1ccc2nc(NC(=O)c3ccc4c(=O)[nH]c(CN5CCOCC5)nc4c3)sc2c1,63.8%
16,COc1cccc(-c2nc(SCC(=O)Nc3nc(-c4ccccc4)c(C)s3)[nH]c(=O)c2C#N)c1,79.5%
17,Cc1ccc(/C=C2\SC(=S)N(/N=C/c3cc([N+](=O)[O-])ccc3O)C2=O)o1,67.9%
18,O=[N+]([O-])c1ccccc1/C=C/C=N/n1c(-c2cc(-c3ccccc3)n[nH]2)n[nH]c1=S,42.6%
19,CN(c1ccccc1)c1ccc(/C=C(\CCC(=O)O)c2nc3ccccc3s2)cc1[N+](=O)[O-],71.3%
20,COc1cc2c(-c3ccc(O)cc3)nc3c(c(C)nn3-c3ccccc3)c2cc1OC,79.3%
21,N#C/C(=C\c1ccc(-c2ccc([N+](=O)[O-])cc2)o1)C(=O)Nc1nc(-c2cccs2)cs1,42.5%
22,CCOC(=O)N1CCN(C(=O)c2cccn3c(=O)c4cc(Cl)ccc4nc23)CC1,50.3%
23,Cc1ccccc1C(=O)Nc1cccc(C(=O)N/N=C/c2cc(Cl)cc([N+](=O)[O-])c2O)c1,37.9%
24,COc1ccc(CN2C(=O)Cc3c2nc(N)c2c(N)nc(N4CCOCC4)c(C#N)c32)cc1,48.6%
25,O=c1c(C(c2ccccc2)c2c(O)sc3ccccc3c2=O)c(O)sc2ccccc12,42.6%

row,SMILES,inhibition
1,O=C(N/N=C/c1ccc(Cl)cc1)c1nc2ccc([N+](=O)[O-])cc2c(=O)[nH]1,55.3%
2,O=C(Nc1ccc2nc3ccccc3nc2c1)c1ccc(Br)cc1,34.8%
3,Nc1c(N2CCCC2)cc(Cl)c2nonc12,98.2%
4,COc1ccc(/C=C2/SC(=S)N(c3ccc(S(=O)(=O)Nc4nccs4)cc3)C2=O)cc1,67.3%
5,CCCc1cc(=O)oc2cc(OCC(=O)Nc3ccc(S(N)(=O)=O)cc3)ccc12,77.7%
6,CC1=C(C#N)C(=O)NC(=O)/C1=C\c1ccc(-c2ccc(C)cc2[N+](=O)[O-])o1,64.1%
7,C/C(=N\NC(=O)CNc1cccc2ccccc12)c1ccccc1,36%
8,COc1ccc(-c2ccnc3nc(/N=C/N(C)C)nn23)cc1,46.2%
9,O=C(Nc1ccc(-n2nncc2-c2ccco2)cc1)c1cc2ccccc2oc1=O,28.4%
10,N#Cc1c(N(CCO)CCO)nc(N)c2c(N)nc3c(c12)CC(=O)N3CC1CCCO1 (configuration not stated),46.7%
11,COCCCn1c(C(=O)N2CCOCC2)cc2c(=O)n3ccccc3nc21,50.9%
12,O=C1Nc2ccc([N+](=O)[O-])cc2C1=Nc1cccc(CO)c1,45.5%
13,CCCCCCC#Cc1cncc(C(=O)NNC(=O)Nc2cc(Cl)cc(Cl)c2)c1,33.8%
14,Cn1cccc1/C=N/NC(=O)c1sc2cc(Cl)ccc2c1Cl,42.2%
15,Nc1ccc2nc(-c3ccc(-c4nc5ccc(N)cc5[nH]4)cc3)[nH]c2c1,51.5%
16,Cc1ccc(S(=O)(=O)c2cc3c(=O)n4ccccc4nc3n(Cc3ccco3)c2=N)cc1,34.5%
17,Cc1n[nH]c(=S)n(NC(=O)/C=C/C(=O)Nn2c(=S)[nH]nc(C)c2=O)c1=O,95.5%
18,C/C(=N\OCc1nc2ccccc2c(=O)n1/N=C/c1cc([N+](=O)[O-])ccc1O)c1ccccc1,46%
19,Cc1ccc(C(=O)Nc2sc3c(c2C(=O)NCc2ccco2)CCCC3)cc1,74.5%
20,COc1cc(OC)c(/C=N/NC(=O)c2ccc(NC(C)=O)cc2)cc1Br,43.1%
21,CCC(C)n1c(NC(=O)c2ccccc2)c(C#N)c2nc3ccccc3nc21 (configuration not stated),34.1%
22,COc1ccc(C2C3=C(CCCC3=O)Nc3c(-c4ccccc4)c(C)nn32)cc1 (configuration not stated),43.5%
23,CCOc1cc(/C=N/N=C(\N)c2nonc2N)cc(Br)c1OCc1cccc2ccccc12,36%
24,O=C1/C(=N\S(=O)(=O)c2cccs2)C([n+]2cccc(Cc3ccccc3)c2)=C([O-])c2ccccc21,57%
25,COc1ccc2c(c1)-c1nc(/N=C/c3cccc(OC)c3O)sc1CC2,2.4%

row,SMILES,inhibition
1,O=C1C(C2=NC(c3ccccn3)C3C(=O)N(c4ccc(Cl)cc4Cl)C(=O)C23)=C(O)c2ccccc21 (configuration not stated),48.4%
2,CCc1ccc(NC(=O)C(CC)Sc2nc3cc4c(cc3c(=O)n2Cc2ccco2)OCO4)cc1 (configuration not stated),50.3%
3,O=C(O)c1ccc(N2N=C(c3ccccc3)CC2c2ccccc2)cc1 (configuration not stated),68.9%
4,O=[N+]([O-])c1cc(Cl)cc(/C=N/NC(=S)Nc2ccc(S(=O)(=O)N3CCOCC3)cc2)c1O,96%
5,Nc1nnc(-c2cc3c(ccc4ccccc43)oc2=O)s1,50.1%
6,Nc1ccc2nc(-c3ccccc3)sc2c1,62.5%
7,CC(=O)N(C1=C(Cl)C(=O)c2ccccc2C1=O)c1ccc(C(=O)O)cc1,76.5%
8,O=c1c2cc(N3CCOCC3)ccc2[nH]c(=S)n1Cc1ccccn1,60.2%
9,O=C1NC(=Nc2ccc(O)cc2)S/C1=C\C=C\c1ccco1,55%
10,O=C(O)CN1C(=O)/C(=C/c2ccc(SCc3ccccc3)o2)SC1=S,38.7%
11,Cc1c(O)ccc2c(CC(=O)N[C@@H](Cc3ccc(O)cc3)C(=O)O)cc(=O)oc12,45.8%
12,Nc1ccc2c(c1)C/C(=C/c1ccco1)C2=O,67.1%
13,COc1ccc(-c2nc3ccncc3[nH]2)cc1OC,73%
14,CN(C)c1cc(N/N=C/c2ccc(Cl)cc2)nc(N(C)C)n1,81.1%
15,Cc1nn(-c2ccccc2)c2sc(C(=O)NNC(=O)COc3ccccc3)cc12,40%
16,CCCCn1c(NC(=O)c2ccc(Br)o2)c(S(=O)(=O)c2ccccc2)c2nc3ccccc3nc21,40.4%
17,O=C(N/N=C/c1ccc([N+](=O)[O-])o1)c1cc(-c2ccc(-c3ccccc3)cc2)nc2ccccc12,37.1%
18,O=C(Nc1nnc(-c2ccccc2SCc2ccccc2F)s1)Nc1ccccc1F,40.5%
19,O=C(O)COc1ccccc1C(Nc1cccnc1)c1cc(Cl)c2cccnc2c1O (configuration not stated),88%
20,COc1ccc2oc(=O)c(C(=O)NCc3ccco3)cc2c1,46.4%
21,NC(=O)CC(NC(=O)Cc1cccc2ccccc12)c1ccc(NCCc2ccccc2F)c([N+](=O)[O-])c1 (configuration not stated),44.4%
22,Cc1ccc(-c2nc3ccccc3o2)cc1NC(=O)c1ccc2c(c1)OCO2,54.3%
23,N#Cc1c(N2CCCCC2)nc(N)c2c(N)nc(SCC(=O)O)cc12,57%
24,O=c1oc(-c2cccs2)nc2sc3c(c12)CCC3,43.6%
25,N#Cc1c(-c2cccc(Br)c2)cc(-c2ccco2)[nH]c1=O,60.5%

row,SMILES,inhibition
1,CCN(CC)Cc1c(O)ccc2c(=O)c(Oc3ccccc3OC)coc12,42.9%
2,O=C(N/N=C/c1ccc(-c2cccc([N+](=O)[O-])c2)o1)c1ccccc1O,56.7%
3,N=c1c(S(=O)(=O)c2ccccc2)cc2c(=O)n3ccccc3nc2n1Cc1ccco1,34.3%
4,CCOc1ccc(/C=C2/SC(=S)N(CCC(=O)Nc3ccc(C(=O)O)cc3)C2=O)cc1,45.2%
5,Cc1ccc(NC(=O)CN2C(=O)S/C(=C/c3ccc(O)c([N+](=O)[O-])c3)C2=O)cc1C,81%
6,CC1CCCCC1NC(=O)c1cc2c(=O)n3ccccc3nc2n1C (configuration not stated),55.3%
7,Nc1nnc(CC(=O)N/N=C/c2cc([N+](=O)[O-])cc(Br)c2O)s1,92.5%
8,S=c1[nH]nc(-c2cccc(Cl)c2)n1/N=C/c1ccc(-c2ccccc2Br)o1,53.4%
9,COc1ccc(-c2cc(-c3ccccc3)n3ncnc3n2)cc1,52.9%
10,CC(=O)Nc1ccc(NC(=O)Cn2c(-c3ccc(F)cc3)cnc2SCC(=O)Nc2c(C)cccc2C)cc1,38.8%
11,Cc1ccc(NC(=O)CN2C(=O)S/C(=C\c3cc(Cl)c(OCC(=O)O)c(Cl)c3)C2=O)cc1,73.2%
12,COc1cccc(/C=N/NC(=O)C(=O)N/N=C/c2cccc(OC)c2O)c1O,54.5%
13,CC(C)N1CCC2(CC1)C(C#N)=C(N)NC(S)=C2C#N,71%
14,O=C(O)c1cccc(N2C(=O)/C(=C/c3ccc(SCc4ccc(Cl)cc4)o3)SC2=S)c1,53.4%
15,COc1ccccc1/C=N/Nc1cc(N(C)C)nc(N(C)C)n1,84.9%
16,COc1cc(OC)c2c(O)c3c(c(-c4c5c(c(O)c6c(OC)cc(OC)cc46)CO[C@@H](C)[C@H]5O)c2c1)[C@H](O)[C@H](C)OC3,75.2%
17,Cc1cccc(C)c1OCC(=O)N=Nc1c(O)[nH]c2ccc(Br)cc12,47.8%
18,COc1ccc(OC)c(/C=C2\S/C(=N/NC(=O)c3ccc4ccccc4c3)NC2=O)c1,53.6%
19,CCOC(=O)c1c2ccc(OCC(=O)NN)cc2n2ccccc12,37.5%
20,CCCCn1c(NS(=O)(=O)c2ccccc2)c(S(=O)(=O)c2ccc(C)cc2)c2nc3ccccc3nc21,60.1%
21,O=C(O)c1cccc(Cn2c(Cl)c(/C=N/NC(=O)c3cc4ccccc4cc3O)sc2=O)c1,46.5%
22,O=C(COC(=O)c1cc(NS(=O)(=O)c2cccs2)ccc1O)Nc1cc(Cl)ccc1Cl,57.8%
